Source: the antibiotic and cytotoxicity screens of Wong et al. (2023)
This is one part of the list.

Experiments:
[1] = test system: HSkMC (human skeletal muscle cells); assay: cytotoxicity call (relative viability < 0.9); details: 10 µM
[2] = test system: HepG2; assay: cytotoxicity call (relative viability < 0.9); details: 10 µM
[3] = test system: S. aureus RN4220; assay: growth inhibition call (relative growth <= 0.2); details: 50 µM

Structure (SMILES) | cytotoxicity call [1] | cytotoxicity call [2] | growth inhibition call [3]
Cc1noc(C)c1NC(=O)Nc1ccc2c(c1)C(=O)N([C@H](C)CO)C[C@@H](C)[C@@H](CN(C)C(=O)NC(C)C)O2 | inactive | inactive | inactive
COc1ccc(NC(=O)Nc2ccc3c(c2)CC(=O)N([C@@H](C)CO)C[C@H](C)[C@H](CN(C)S(C)(=O)=O)O3)cc1 | inactive | inactive | inactive
C[C@H](CO)N1C[C@H](C)[C@H](CN(C)C(=O)Nc2ccccc2)Oc2ccc(NS(C)(=O)=O)cc2C1=O | inactive | inactive | inactive
C[C@@H]1CN([C@@H](C)CO)C(=O)Cc2cc(NC(=O)CCCCCC(=O)Nc3ccccc3N)ccc2O[C@@H]1CN(C)C(=O)Nc1cccc2ccccc12 | inactive | inactive | inactive
C[C@@H]1CN([C@@H](C)CO)C(=O)c2cccc(NS(C)(=O)=O)c2O[C@@H]1CN(C)C(=O)Nc1ccc(F)cc1 | inactive | inactive | inactive
Cc1noc(C)c1NC(=O)N(C)C[C@@H]1Oc2c(NC(=O)Nc3cccc4ccccc34)cccc2C(=O)N([C@H](C)CO)C[C@H]1C | inactive | inactive | inactive
C[C@@H]1CCCCO[C@H](CN(C)C(=O)C2CCCCC2)[C@@H](C)CN([C@@H](C)CO)C(=O)c2cc(NC(=O)c3ccncc3)ccc2O1 | inactive | inactive | inactive
C[C@H]1NC(=O)COC12CCN(C(=O)c1cnccn1)CC2 | inactive | inactive | inactive
C[C@@H]1CN([C@H](C)CO)C(=O)c2cccc(NC(=O)Nc3ccc(C(F)(F)F)cc3)c2O[C@H]1CN(C)Cc1ccc2c(c1)OCO2 | inactive | inactive | inactive
C[C@@H]1CN([C@H](C)CO)C(=O)Cc2cc(NS(C)(=O)=O)ccc2O[C@@H]1CN(C)S(=O)(=O)c1cccs1 | inactive | inactive | inactive
C[C@@H]1CCCCO[C@@H](CN(C)S(=O)(=O)c2cccs2)[C@@H](C)CN([C@H](C)CO)C(=O)c2cc(NC(=O)c3ccccc3)ccc2O1 | inactive | inactive | inactive
C[C@@H]1CCCCO[C@@H](CN(C)CC2CCCCC2)[C@H](C)CN([C@@H](C)CO)C(=O)c2cc(NC(=O)Nc3cccc4ccccc34)ccc2O1 | inactive | active | inactive
COc1ncnc(NS(=O)(=O)c2ccc(N)cc2)c1OC | inactive | inactive | inactive
C[C@@H]1CN([C@@H](C)CO)C(=O)c2cccc(NC(=O)c3cnccn3)c2O[C@@H]1CN(C)Cc1ccc2c(c1)OCO2 | inactive | inactive | inactive
C[C@@H]1CCCCO[C@H](CN(C)Cc2ccccc2)[C@@H](C)CN([C@H](C)CO)C(=O)c2cc(NS(=O)(=O)c3cccs3)ccc2O1 | inactive | inactive | inactive
C[C@H](CO)N1C[C@H](C)[C@@H](CN(C)S(=O)(=O)c2ccc3ccccc3c2)OCc2cn(nn2)CCCC1=O | inactive | inactive | inactive
C[C@@H]1CN([C@@H](C)CO)C(=O)c2cc(NC(=O)c3ccncc3)ccc2O[C@H]1CN(C)Cc1ccc2c(c1)OCO2 | inactive | inactive | inactive
C[C@H](CO)N1C[C@H](C)[C@@H](CN(C)Cc2ccc(Cl)c(Cl)c2)OCCCC[C@H](C)Oc2ccc(NC(=O)c3ccncc3)cc2C1=O | inactive | inactive | inactive
O=C(N[C@H]1CC[C@@H](CC(=O)N2CCOCC2)O[C@@H]1CO)c1ccccn1 | inactive | inactive | inactive
CCCN(C)C[C@H]1OCCCC[C@H](C)Oc2ccc(NC(=O)Cc3ccccc3)cc2C(=O)N([C@H](C)CO)C[C@H]1C | inactive | inactive | inactive
C[C@H](CO)N1C[C@H](C)[C@@H](CN(C)Cc2ccc(Cl)c(Cl)c2)Oc2c(NC(=O)CCCCCC(=O)Nc3ccccc3N)cccc2C1=O | inactive | inactive | inactive
C[C@H](CO)N1C[C@H](C)[C@@H](CN(C)CC2CC2)OCCCC[C@H](C)Oc2ccc(NC(=O)CCCCCC(=O)Nc3ccccc3N)cc2C1=O | inactive | inactive | inactive
COc1ccc(CN(C)C[C@@H]2OCCCC[C@@H](C)Oc3ccc(NC(=O)C4CCCCC4)cc3C(=O)N([C@@H](C)CO)C[C@H]2C)cc1 | inactive | inactive | inactive
CC(C)C[C@H](NC(=O)[C@H]1O[C@@H]1C(=O)O)C(=O)NCCCCNC(=N)N | inactive | inactive | inactive
C[C@@H]1CCCCO[C@@H](CN(C)C(=O)Nc2ccc(F)cc2)[C@H](C)CN([C@@H](C)CO)C(=O)c2cc(NC(=O)Cc3ccccc3)ccc2O1 | inactive | inactive | inactive
CN1C(=O)[C@@H]2[C@H](N=CN2CCCO)N(C)C1=O | inactive | inactive | inactive
O=C(C[C@@H]1C[C@H]2c3cc(NS(=O)(=O)c4ccc(F)cc4)ccc3O[C@H]2[C@@H](CO)O1)NCc1ccncc1 | inactive | inactive | inactive
